About 14,000 (4.5%) of roughly 310,000 compounds showed an effect of 50% or more. Effects have a minus sign here. The list shows a part of the results.
target: human ether-à-go-go-related gene (hERG) potassium channel (human, UniProt Q12809); test: primary screen, population patch clamp on CHO cells stably expressing hERG
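Note: peak tail current of the secondary pulse compared with the same well before compound.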

Chain of human ether-à-go-go-related gene (hERG) potassium channel (Q12809 whole entry, looked up): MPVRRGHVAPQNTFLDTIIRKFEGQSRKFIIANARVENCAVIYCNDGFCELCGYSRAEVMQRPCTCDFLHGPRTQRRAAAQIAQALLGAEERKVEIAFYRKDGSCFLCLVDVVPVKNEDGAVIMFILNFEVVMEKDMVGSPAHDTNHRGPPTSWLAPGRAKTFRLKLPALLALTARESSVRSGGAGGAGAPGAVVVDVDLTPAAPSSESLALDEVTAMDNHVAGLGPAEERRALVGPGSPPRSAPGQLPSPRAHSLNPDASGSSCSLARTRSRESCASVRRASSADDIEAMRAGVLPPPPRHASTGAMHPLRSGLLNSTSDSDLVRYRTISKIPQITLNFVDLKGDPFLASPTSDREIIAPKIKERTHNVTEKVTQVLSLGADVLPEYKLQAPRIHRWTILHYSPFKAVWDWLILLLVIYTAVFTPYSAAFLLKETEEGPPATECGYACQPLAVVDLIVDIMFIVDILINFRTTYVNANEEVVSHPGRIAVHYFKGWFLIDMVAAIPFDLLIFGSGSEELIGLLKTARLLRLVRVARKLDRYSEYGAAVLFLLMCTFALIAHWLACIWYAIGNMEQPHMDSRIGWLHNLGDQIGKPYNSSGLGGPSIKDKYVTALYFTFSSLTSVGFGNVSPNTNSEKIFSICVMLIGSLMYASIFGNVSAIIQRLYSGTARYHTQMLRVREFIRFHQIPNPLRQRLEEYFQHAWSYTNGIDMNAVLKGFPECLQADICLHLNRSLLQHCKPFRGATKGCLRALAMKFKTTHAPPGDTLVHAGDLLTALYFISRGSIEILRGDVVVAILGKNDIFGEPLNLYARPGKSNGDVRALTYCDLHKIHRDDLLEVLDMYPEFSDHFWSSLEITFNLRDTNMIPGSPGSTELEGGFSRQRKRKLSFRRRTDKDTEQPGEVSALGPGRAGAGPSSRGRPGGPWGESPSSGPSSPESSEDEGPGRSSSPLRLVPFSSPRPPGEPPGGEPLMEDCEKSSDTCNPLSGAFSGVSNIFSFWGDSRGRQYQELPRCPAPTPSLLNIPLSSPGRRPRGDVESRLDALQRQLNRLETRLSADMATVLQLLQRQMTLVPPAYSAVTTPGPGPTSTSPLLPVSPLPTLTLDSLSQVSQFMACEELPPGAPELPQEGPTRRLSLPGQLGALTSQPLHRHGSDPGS

Structure (SMILES) | hERG current change (%, negative = inhibition) at 10uM [%]
O=C(CSc1nncs1)Nc1ccc(Cl)cc1C(F)(F)F | 6.67
CCCCCCCCCCCCN1C(=O)CSC1c1cccnc1 (stereo not shown) | 7.01
C=CCNC(=O)CC(=O)N/N=C/c1cccc(C)c1 | -0.0695
CC(=O)COc1ccc2c(-c3ccccc3)cc(=O)oc2c1C | 9.95
CCOC(=O)C1=C2SCC(=O)N2C(N)=C(C#N)C1 | -4.36
N#Cc1ccccc1S(=O)(=O)N1CCN(C(=O)c2cn(-c3ccccc3)nc2-c2cccnc2)CC1 | -48
CC1Cc2ccccc2N1S(=O)(=O)c1cccc(C(=O)N2CC(=O)Nc3ccccc32)c1 (stereo not shown) | -4.44
Cc1ccc(C)c(NC(=O)CN(C)C(=O)c2oc3c(Cl)cccc3c2C)c1 | -24.4
Cl.Fc1ccc(Cn2nnnc2C(c2ccc(Cl)cc2)N2CCSCC2)cc1 (stereo not shown) | -1.72
O=C1c2ccccc2C(=O)N1Cc1cc(-c2ccc(Cl)cc2)no1 | 7.2
Cc1ccc(OCCn2cccn2)c(C)c1 | 7.47
Cc1ccc(OCc2cc(C(=O)N3CCc4sccc4C3)no2)cc1C | -0.923
Cc1ccc(C(=O)NCC(=O)OCC(=O)c2ccc(Cl)s2)cc1 | 10.6
COc1ccccc1N(CC(=O)NCCSc1ccccc1)S(C)(=O)=O | -16.3
CCOc1ccc(C(C)=O)cc1COC(=O)CCc1cc(OC)c(OC)c(OC)c1 | 8.25
COc1cc(Cl)ccc1OCc1cc(C(=O)N(C)C2CCOC2)no1 (stereo not shown) | 5.43
NC(=O)NC(=O)CN1C(=O)NC2(CCOc3ccccc32)C1=O (stereo not shown) | 18.1
COc1cc(Cl)cc(CN2CCC(CCC(=O)NC3CC3)CC2)c1OC | -20.8
Cc1ccc(C)c(S(=O)(=O)N2CCN(C(=O)c3cccnc3)CC2)c1 | 4.07
CCc1ccc(Nc2nnc(SCC(=O)NC(=O)c3cccn3C)s2)cc1 | 18.9
CN(C)c1ccc(/C=C(/NC(=O)c2ccccc2)C(=O)NCCN2CCOCC2)cc1 | 4.15
CC1CCN(C(=O)CSc2nnc(CNC(=O)c3ccc(F)cc3)o2)CC1 | -4.47

Structure (SMILES) | hERG current change (%, negative = inhibition) at 10uM [%]
COc1ccc(/C=C/C(=O)O)cc1S(=O)(=O)Nc1ccc2c(c1)OCO2 | 3.41
CN(C)c1ccc(NC(=S)NC(=O)/C=C/c2ccc(Cl)cc2)cc1 | 2.39
COc1ccc2c(c1)c(=O)oc1c(C)c(OC(C)C(=O)N[C@@H](Cc3c[nH]c4ccc(O)cc34)C(=O)O)ccc12 (stereo partly shown) | 24.1
CN(C)c1ccc(/C=C/c2nc3ccccc3c(=O)[nH]2)cc1 | 18.5
NC(=O)CC(NC(=O)Cc1ccc(Cl)cc1)c1ccc(NC2CCCCC2)c([N+](=O)[O-])c1 (stereo not shown) | 6.6
Cc1cc(O)c(C2=Nc3ccccc3SC(c3ccc(Cl)cc3)C2)c(=O)o1 (stereo not shown) | 19.4
CNc1nc2c(c(=O)[nH]c(=O)n2C)n1CCCc1ccccc1 | 19.8
COc1ccc(-c2c(C)nn3c(NC4CCCC4)cc(C)nc23)cc1OC | -17.2
CC(C)(Cc1ccccc1)/[N+]([O-])=C\c1ccc(C(F)(F)F)cc1 | -22
O=C(NCCCN1CCOCC1)c1nn(-c2ccccc2)c(=O)c2ccccc12 | -26.2
COC(=O)c1cc(Br)c(=O)n(Cc2ccco2)c1 | 3.43
Cc1ccc(OC(=O)CCNC(=O)c2ccccc2Cl)c(Br)c1 | -16.3
Cc1ccc(C(=O)NCC(=O)OCC(=O)Nc2ccc(Cl)cc2C(F)(F)F)cc1C | -4.47
Cc1c(F)cccc1NC(=O)CCCCCC1NC(=O)NC1C (stereo not shown) | 14.9
Cn1c(=O)n(C)c2cc(S(=O)(=O)N3CCCCC3)ccc21 | 10.4
CCc1ccc(N(C(=O)CNC(=O)c2ccco2)C(C(=O)NC2CCCC2)c2ccncc2)cc1 (stereo not shown) | -9.98
Cc1ccccc1NC(=O)c1cccnc1 | -7.59
CCCNS(=O)(=O)c1ccc(CCC(=O)NCc2cccnc2)cc1 | 15.3
CC(=O)C(Cc1ccccc1)NC(=O)CN1CCc2ccccc2C1 (stereo not shown) | -7.4
COc1cccc(C2Oc3ccccc3C3CC(c4cccs4)=NN32)c1 (stereo not shown) | 5.24
Cc1oc(C(C)(C)C)cc1C(=O)NCC(=O)NCC(=O)O | -2.41
Cc1ccc(-c2nnc(-c3ccc(Br)cc3)o2)o1 | 3.4

Structure (SMILES) | hERG current change (%, negative = inhibition) at 10uM [%]
Cc1cccc(NCC(O)Cn2cnc3c2c(=O)n(C)c(=O)n3C)c1 (stereo not shown) | -1.49
COc1ccnc(Oc2ccc(C)cc2)c1C#N | 12.1
CCOc1ccc(S(=O)(=O)N(CC)CC(=O)NCc2cccnc2)cc1C | -23.9
CCOc1cccc(-c2c(C(=O)N/N=C/c3cccs3)nnn2-c2nonc2N)c1 | 6.5
CCN1CCN(C(c2cc(OC)c(OC)c(OC)c2)c2nnnn2C(C)C)CC1.Cl (stereo not shown) | -10.6
COc1cccc(C=Nc2ccccc2C(=O)Nc2ccccc2)c1O | 26.7
CNC(=O)CSc1nnc(-c2cccnc2)n1-c1ccc(C)cc1 | 13.6
COc1nc(NCCc2ccc(OC)c(OC)c2)nc(OC)n1 | -18.3
COc1ccccc1N1CCN(S(=O)(=O)c2ccc3c(c2)NC(=O)CS3)CC1 | 2.82
CCN(CC)c1ccc(/C=N/NC(=O)CC(C)C)cc1 | -13.7
CC(NCCC1(C(C)C)CCOC(C)(C)C1)c1cccs1 (stereo not shown) | 15.9
Cc1ccc(C(=O)N2CCN(c3cccc(Cl)c3)CC2)cc1C | -13.4
c1ccc(Nc2ccc(Nc3ccccc3)cc2)cc1 | 17.9
CC(=O)c1cccc(NC(=O)CN(c2ccccc2F)S(C)(=O)=O)c1 | -0.927
CC(C)C1(C(C)C)OC(=O)c2ccccc21 | -20.6
Nn1c(SCC(=O)NC2CCCCC2)nnc1-c1ccco1 | 4.3
COc1ccc2oc(C(=O)N3CCN(c4ncccn4)CC3)c(C)c2c1 | -34.7
COc1ccc(CNC(=O)C(c2ccco2)N(C(=O)c2csnn2)c2cccc(C)c2C)cc1 (stereo not shown) | -5.13
O=C(Oc1ccccc1Cl)c1ccccc1P(=O)(O)O | 13.9
Cc1ccc(CNc2ccc3c(c2)ncn3C)cc1 | -33.8
O=C(CCCn1c(=O)[nH]c2ccccc2c1=O)Nc1ccc(F)cc1 | -2.74
O=C(CSc1nc2ccccc2[nH]1)Nc1nc(-c2ccc(Br)cc2)cs1 | 29.2

Structure (SMILES) | hERG current change (%, negative = inhibition) at 10uM [%]
CCOc1ccc(-n2c(=S)sc3c(=O)n(-c4ccc(F)cc4)c(SCC(=O)O)nc32)cc1 | -23.7
COc1ccc(C(=O)Nc2ncc(C)s2)cc1S(=O)(=O)N1CCCC1 | 17.5
CC[n+]1oc(-c2ccccc2)cc1C.F[B-](F)(F)F | 6.78
O=C(c1ccccc1)c1ccc2c(c1)OCCOCCOCCOCCO2 | -65
COc1ccccc1N1CCN(S(=O)(=O)CCNC(=O)CCCc2ccccc2)CC1 | -17
COc1ccc(NC(=O)c2cc(-c3ccccn3)nc3ccccc23)cc1S(=O)(=O)N(C)C | -16.6
Cn1cccc1C(NC(=O)c1ccccc1)C(Cl)(Cl)Cl (stereo not shown) | 13.1
O=C(NC1CCCC1)C(=O)N(Cc1cccnc1)C(C(=O)NCC1CCCO1)c1ccco1 (stereo not shown) | 38.2
COc1ccc(N2CCN(C(=O)Cn3cncn3)CC2)cc1 | 2.02
CC(=O)Nc1ccc(NC(=O)Cn2c(=O)n(-c3ccc(C)cc3)c(=O)c3oc4ccccc4c32)cc1 | 6.04
O=C(Oc1ccc2cc(Br)ccc2c1)c1cccnc1 | 14.4
COc1ccc(C)cc1NC(=O)CCS(=O)(=O)c1cc2c(cc1Cl)NC(=O)CO2 | -14.4
CCN1CCc2nc(NC(=O)c3cc(F)c(F)cc3Cl)sc2C1 | -34.2
COc1ccc(C(=O)N2CCCC2)cc1S(=O)(=O)N1CCC(C)CC1 | 5.33
COc1cc(NC(=S)NCCCN2CCOCC2)c(OC)cc1Cl | -12.2
Cc1cccc(CS(=O)(=O)c2ncc(Cl)c(C(=O)NCc3ccc4c(c3)OCO4)n2)c1 | 0.86
O=C(O)COCC(=O)Nc1ccc(-n2nc(C(F)(F)F)cc2-c2cccs2)cc1 | 20.4
Cc1cc(-c2ccccc2)nc(N(C)NC(=O)c2c(F)cccc2F)c1S(C)(=O)=O | -26.1
Cc1nnsc1S(=O)c1ccc(F)cc1 (stereo not shown) | 20.3
O=C(Cc1csc(NC(=O)c2ccccc2)n1)NO | 8.93
COc1ccc(NC(=S)N2CCC(N(C)CC3CCCO3)CC2)cc1 (stereo not shown) | -17.4
CCOCCCN1C(=O)C2C(C(=O)Nc3ccc(OCC)cc3)C3C=CC2(O3)C1C(=O)NC1CCCCC1 (stereo not shown) | -72.8

— paper PMC4336329 (PLoS ONE, 2015)
